The supplement of paper PMC11302662

What was measured:
Assay in all cases: Isolates counted by MIC; Sensititre broth microdilution panel on ESBL-producing clinical isolates.
[1] = tested on: Enterobacter cloacae (10 isolates)
[2] = tested on: Enterobacter hormaechei (113 isolates)
[3] = tested on: Escherichia coli (193 isolates)
[4] = tested on: Klebsiella pneumoniae (122 isolates)

Row | Structure (SMILES) | isolate count ([1]; MIC: 8 mg/L) | isolate count ([2]; MIC: 2 mg/L) | isolate count ([2]; MIC: 4 mg/L) | isolate count ([2]; MIC: 8 mg/L) | isolate count ([3]; MIC: 2 mg/L) | isolate count ([3]; MIC: 4 mg/L) | isolate count ([3]; MIC: 8 mg/L) | isolate count ([3]; MIC: 16 mg/L) | isolate count ([3]; MIC: ≥32 mg/L) | isolate count ([4]; MIC: 2 mg/L) | isolate count ([4]; MIC: 4 mg/L) | isolate count ([4]; MIC: 8 mg/L) | isolate count ([4]; MIC: ≥32 mg/L) | isolate count ([3]; MIC: 1 mg/L) | isolate count ([1]; MIC: 0.5 mg/L) | isolate count ([2]; MIC: 0.5 mg/L) | isolate count ([2]; MIC: 1 mg/L) | isolate count ([3]; MIC: 0.5 mg/L) | isolate count ([4]; MIC: 0.5 mg/L) | isolate count ([4]; MIC: 1 mg/L) | further results
1 | NCC[C@H](O)C(=O)N[C@@H]1C[C@H](N)[C@@H](O[C@H]2O[C@H](CN)[C@@H](O)[C@H](O)[C@H]2O)[C@H](O)[C@H]1O[C@H]1O[C@H](CO)[C@@H](O)[C@H](N)[C@H]1O [amikacin] | 1 | 55 | 31 | 15 | 95 | 19 | 10 | 11 | 3 | 20 | 19 | 5 | 1 |  |  |  |  |  |  |  | isolate count ([1]; MIC: 2 mg/L): 7; isolate count ([1]; MIC: 4 mg/L): 2; isolate count ([2]; MIC: ≤1 mg/L): 12; isolate count ([3]; MIC: ≤1 mg/L): 55; isolate count ([4]; MIC: ≤1 mg/L): 77
2 | CC(C)(O/N=C(\C(=O)N[C@@H]1C(=O)N2C(C(=O)[O-])=C(C[n+]3ccccc3)CS[C@H]12)c1csc(N)n1)C(=O)O [ceftazidime] |  |  | 2 | 5 | 19 | 34 | 48 | 45 | 24 | 2 | 4 | 31 | 40 | 17 |  |  |  |  |  |  | isolate count ([1]; MIC: 16 mg/L): 6; isolate count ([1]; MIC: ≥32 mg/L): 4; isolate count ([2]; MIC: 16 mg/L): 38; isolate count ([2]; MIC: ≥32 mg/L): 68; isolate count ([3]; MIC: ≤0.5 mg/L): 6; isolate count ([4]; MIC: 16 mg/L): 45
3 | CCC(C)CCCC(=O)N[C@@H](CCN)C(=O)N[C@H](C(=O)N[C@@H](CCN)C(=O)N[C@H]1CCNC(=O)[C@H]([C@@H](C)O)NC(=O)[C@H](CCN)NC(=O)[C@H](CCN)NC(=O)[C@H](CC(C)C)NC(=O)[C@@H](CC(C)C)NC(=O)[C@H](CCN)NC1=O)[C@@H](C)O (some centres not stated) [colistin] | 2 |  |  |  |  |  | 1 |  |  | 1 | 1 |  |  | 3 | 1 | 89 | 20 | 161 | 84 | 36 | isolate count ([1]; MIC: 1 mg/L): 1; isolate count ([1]; MIC: ≥16 mg/L): 6; isolate count ([2]; MIC: ≤0.25 mg/L): 4; isolate count ([3]; MIC: ≤0.25 mg/L): 28
4 | C[C@@H](O)[C@H]1C(=O)N2C(C(=O)O)=C(S[C@@H]3CN[C@H](C(=O)Nc4cccc(C(=O)O)c4)C3)[C@H](C)[C@H]12 [ertapenem] |  |  |  |  |  |  |  |  |  |  |  |  |  |  | 1 | 7 |  | 2 | 6 |  | isolate count ([1]; MIC: 0.12 mg/L): 2; isolate count ([1]; MIC: ≤0.06 mg/L): 7; isolate count ([2]; MIC: 0.12 mg/L): 15; isolate count ([2]; MIC: 0.25 mg/L): 14; isolate count ([2]; MIC: ≤0.06 mg/L): 72; isolate count ([2]; MIC: ≥1 mg/L): 5; isolate count ([3]; MIC: 0.12 mg/L): 6; isolate count ([3]; MIC: 0.25 mg/L): 1; isolate count ([3]; MIC: ≤0.06 mg/L): 183; isolate count ([3]; MIC: ≥1 mg/L): 1; isolate count ([4]; MIC: 0.12 mg/L): 16; isolate count ([4]; MIC: 0.25 mg/L): 5; isolate count ([4]; MIC: ≤0.06 mg/L): 92; isolate count ([4]; MIC: ≥1 mg/L): 3
5 | CNC(C)C1CCC(N)C(OC2C(N)CC(N)C(OC3OCC(C)(O)C(NC)C3O)C2O)O1 (configuration not stated) [gentamicin] |  |  | 2 |  | 6 | 1 |  |  |  | 1 | 5 |  |  |  |  |  |  |  |  |  | isolate count ([1]; MIC: ≥8 mg/L): 10; isolate count ([2]; MIC: ≤1 mg/L): 11; isolate count ([2]; MIC: ≥8 mg/L): 100; isolate count ([3]; MIC: ≤1 mg/L): 132; isolate count ([3]; MIC: ≥8 mg/L): 54; isolate count ([4]; MIC: ≤1 mg/L): 75; isolate count ([4]; MIC: ≥8 mg/L): 41
6 | C[C@@H](O)[C@H]1C(=O)N2C(C(=O)O)=C(SCCNC=N)C[C@H]12 [imipenem] |  | 2 |  |  |  |  |  |  |  | 1 | 1 |  |  | 3 |  |  | 7 |  |  | 4 | isolate count ([1]; MIC: ≤0.5 mg/L): 10; isolate count ([2]; MIC: ≤0.5 mg/L): 104; isolate count ([3]; MIC: ≤0.5 mg/L): 190; isolate count ([4]; MIC: ≤0.5 mg/L): 115; isolate count ([4]; MIC: ≥16 mg/L): 1
7 | C[C@@H](O)[C@H]1C(=O)N2C(C(=O)O)=C(S[C@@H]3CN[C@H](C(=O)N(C)C)C3)[C@H](C)[C@H]12 [meropenem] |  |  |  |  |  |  |  |  |  | 1 |  |  |  | 1 |  | 2 |  |  |  |  | isolate count ([1]; MIC: ≤0.12 mg/L): 10; isolate count ([2]; MIC: 0.25 mg/L): 2; isolate count ([2]; MIC: ≤0.12 mg/L): 109; isolate count ([3]; MIC: ≤0.12 mg/L): 192; isolate count ([4]; MIC: 0.25 mg/L): 1; isolate count ([4]; MIC: ≤0.12 mg/L): 118; isolate count ([4]; MIC: ≥16 mg/L): 2
8 | CO[C@@]1(NC(=O)C(C(=O)O)c2ccsc2)C(=O)N2[C@@H](C(=O)O)C(C)(C)S[C@@H]21 (some centres not stated) [temocillin] | 5 |  |  | 50 |  |  | 87 | 53 | 12 |  |  | 50 | 6 |  |  |  |  |  |  |  | isolate count ([1]; MIC: 16 mg/L): 2; isolate count ([1]; MIC: ≤4 mg/L): 2; isolate count ([1]; MIC: ≥32 mg/L): 1; isolate count ([2]; MIC: 16 mg/L): 23; isolate count ([2]; MIC: ≤4 mg/L): 31; isolate count ([2]; MIC: ≥32 mg/L): 9; isolate count ([3]; MIC: ≤4 mg/L): 41; isolate count ([4]; MIC: 16 mg/L): 23; isolate count ([4]; MIC: ≤4 mg/L): 43
9 | CN(C)c1cc(NC(=O)CNC(C)(C)C)c(O)c2c1C[C@H]1C[C@H]3[C@H](N(C)C)C(O)=C(C(N)=O)C(=O)[C@@]3(O)C(O)=C1C2=O [tigecycline] |  | 11 |  |  |  |  |  |  |  | 9 |  |  |  |  | 4 | 74 | 6 | 8 | 55 | 29 | isolate count ([1]; MIC: ≤0.25 mg/L): 6; isolate count ([2]; MIC: ≤0.25 mg/L): 21; isolate count ([2]; MIC: ≥4 mg/L): 1; isolate count ([3]; MIC: ≤0.25 mg/L): 185; isolate count ([4]; MIC: ≤0.25 mg/L): 25; isolate count ([4]; MIC: ≥4 mg/L): 4

Each value is the number of isolates with that result; steps that no isolate showed are left empty. MIC by broth microdilution (Sensititre panel) of ESBL-producing clinical Enterobacterales isolates; higher = less susceptible. No active / inactive call. '<=' and '>=' mark the lowest and highest value of each drug's range; the source prints them as plain numbers.
